Measurements: PubChem BioAssay AID504845 (National Center for Advancing Translational Sciences (NCATS), 2011)
The whole screen tested about 390,000 compounds, of which about 150 (0.038%) were called active. Inconclusive results, whose numbers are uncertain, are shown with a selection of clear calls. Calls come from the whole dose curve; as a rule, active = well fitted inhibition curve with a large enough effect; inconclusive = small, poorly fitted or top-dose-only effect; inactive = no such curve, though single readings can be large or run the other way. A potency beside an inconclusive call is a rough fit, not a confirmed value.

Each compound was assayed against Regulator of G-protein signaling 4 (Homo sapiens) (UniProt P49798) (assay: Inhibitors of Regulator of G Protein Signaling (RGS) 4: qHTS). Settings: Transcreener GDP fluorescence polarization, RGS4-accelerated GTP hydrolysis; series mostly up to 114 µM; activity change, negative = inhibition: at the top concentration.
Sequence of UniProt P49798 (P49798 whole entry, looked up): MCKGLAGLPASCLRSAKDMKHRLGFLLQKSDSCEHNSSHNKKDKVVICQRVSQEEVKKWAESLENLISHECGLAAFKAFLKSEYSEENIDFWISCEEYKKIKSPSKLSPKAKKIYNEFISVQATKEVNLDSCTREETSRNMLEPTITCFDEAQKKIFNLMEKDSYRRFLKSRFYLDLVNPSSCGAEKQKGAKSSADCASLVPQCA
Outline: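 MLSMR compounds (23 nl, pin-transferred) preincubated 10 min at room temperature with a 500nM (2x) first reagent, then RGS4 at 900nM (2x) plus Transcreener GDP mix added; fluorescence polarization (620/688 nm) read before and after 90 min at 30 °C.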
% is set by controls: 0 for no effect and ±100 for the full control effect; potency is the fitted concentration of half-maximal effect; tags give direction and shape of the fitted curve.
Note: nearly all actives have a fitted effect of over 75% in size.

Structure (SMILES) | Potency | activity change, negative = inhibition
CN(C)CCCNC(=O)N1c2ccccc2C=Cc2ccccc21 | inconclusive: 100 µM [inhibitor, partial curve, poor fit] | –
NC(=S)n1[nH]c(-c2ccc([N+](=O)[O-])cc2)c(N=Nc2ccc(Cl)cc2)c1=O | inconclusive: 50.1 µM [inhibitor, partial curve, poor fit] | –
O=C(c1ccc([N+](=O)[O-])cc1)N1CCSC1c1ccc(Br)cc1 (stereo unspecified) | inconclusive: 50.1 µM [inhibitor, partial curve, poor fit] | –
Cc1ccc(S(=O)(=O)N2CCOCC2)cc1NC(=O)CNCc1ccc(Cl)cc1Cl | – | inactive: -16.5%
O=C(NC1CCCCC1)c1cnn2c(C(F)(F)F)cc(-c3ccco3)nc12 | – | inactive: -29.5%
CC1CCCN(CCCCOc2cccc(Br)c2)C1 (stereo unspecified) | – | inactive: 20.3%
O=C(Nc1ccc2oc(-c3cccnc3)nc2c1)c1ccc(-c2ccccc2)o1 | inconclusive: 28.2 µM [inhibitor, full curve, poor fit] | –
C#CCOCCOCCOCCNc1nc(N2CCN(C(=O)C([C@@H](C)CC)n3cc(C(N)Cc4ccc(O)cc4)nn3)CC2)nc(N2CCN(C(=O)[C@H](CCC(=O)O)n3cc(C(N)[C@H](C)CC)nn3)CC2)n1 (stereo partly specified) | – | inactive: -10.7%
COc1cc(Cl)c(NS(=O)(=O)c2ccc(-c3ccc(=O)[nH]n3)o2)c(OC)c1 | inconclusive: 89.1 µM [inhibitor, single point] | –
CCOC(=O)N1CCC(=NNC(=O)COc2cccc(C)c2)CC1 | inconclusive: 100 µM [inhibitor, single point] | –
Cc1cc(O)cc2c(=O)c3ccccc3sc12 | inconclusive: 17.8 µM [inhibitor, full curve, poor fit] | –
CCCCOc1ccc(C(=O)NCC(=O)N2CC(C)CC(C)C2)cc1 (stereo unspecified) | – | inactive: 1.28%
CC(C)COc1cccc(-c2cc(C(=O)Nc3ccon3)c3ccccc3n2)c1 | – | inactive: -25.8%
Cc1ccc(-c2cc(=O)c3cc(F)ccc3[nH]2)cc1 | – | inactive: -5.24%
Cc1ccnc(NC(=O)c2cccs2)c1 | inconclusive: 89.1 µM [inhibitor, single point] | –
CCOc1ccc(NC(=O)CN(C)C(=O)C2CC(=O)N(CCc3ccc(OC)c(OC)c3)C2)cc1OCC (stereo unspecified) | inconclusive: 100 µM [inhibitor, single point] | –
O=C(Nc1ccccc1Cl)NN1CCCCCC1 | – | inactive: 20.6%
O=C(CN1C2=NCCCN2c2ccccc21)c1cccs1 | inconclusive: 89.1 µM [inhibitor, single point] | –
S=c1[nH]nc(C2CCCCC2)n1/N=C/c1ccc(Br)s1 | inconclusive: 100 µM [inhibitor, single point] | –
COc1ccccc1C(=O)NC(=S)Nc1ccc(NC(=O)c2cccs2)cc1 | inconclusive: 44.7 µM [inhibitor, partial curve, poor fit] | –
Cn1c2ccccc2c2cc(C(=O)OCC(=O)N3CC(=O)Nc4ccccc43)sc21 | inconclusive: 56.2 µM [inhibitor, partial curve, poor fit] | –
COc1ccc(C(C#N)=C2C=CC(=NO)C=C2)cc1 | inconclusive: 56.2 µM [inhibitor, partial curve, poor fit] | –

Structure (SMILES) | Potency | activity change, negative = inhibition
COc1ccc(C(=O)/C=C/C(=O)N(CC(=O)NC2CCCCC2)Cc2ccccc2OC)c(O)c1 | inconclusive: 20 µM [inhibitor, full curve, poor fit] | –
COCCN(CCOC)S(=O)(=O)c1ccc(C(=O)Nc2sc3c(c2C(N)=O)CCCCC3)cc1 | inconclusive: 35.5 µM [inhibitor, partial curve, poor fit] | –
Cc1oc2c(c1C(=O)Nc1ccc(Cl)cc1F)C1=NCCN1C=N2 | – | inactive: -7%
Cc1nc(C)c(C(=O)N(c2ccccc2F)C(C(=O)NCC2CCCO2)c2ccccc2)s1 (stereo unspecified) | inconclusive: 39.8 µM [inhibitor, partial curve, poor fit] | –
CCOC(=O)c1ccc(-n2c(CCC(=O)O)ccc2-c2cccs2)cc1 | inconclusive: 70.8 µM [inhibitor, partial curve, poor fit] | –
Cc1ccc(C(=O)Sc2cccccc2=O)cc1 | – | inactive: -98.4%
CC(NC(=O)NC1CCCCC1)C(c1cccs1)N1CCN(c2ccccc2)CC1 (stereo unspecified) | – | inactive: 14.5%
CCOC(=O)c1c(NC(=O)c2nn(CC)cc2Br)sc2c1CCCCC2 | – | inactive: -44.3%
O=C1C=CC(=O)N1c1ccc2ccccc2c1 | inconclusive: 28.2 µM [inhibitor, partial curve, poor fit] | –
CCC(C)NC(=O)c1ccc2nc(-c3ccc(OC)c(OC)c3)c(-c3ccc(OC)c(OC)c3)nc2c1 (stereo unspecified) | – | inactive: 10.4%
COC1=C(Br)C(=O)c2ncccc2C1=O | inconclusive: 100 µM [inhibitor, partial curve, poor fit] | –
Cc1nc2nc(SCC(=O)NCc3ccccc3)nn2c(C)c1Cc1ccccc1Cl | – | inactive: -0.275%
O=C(O)Cn1c2ccccc2c2n[nH]c(=S)nc21 | inconclusive: 50.1 µM [inhibitor, partial curve, poor fit] | –
C#CCNC(=O)C(C)c1ncc(C(F)(F)F)cc1Cl (stereo unspecified) | inconclusive: 56.2 µM [inhibitor, partial curve, poor fit] | –
O=C(Nc1nc(-c2ccco2)c(-c2ccco2)s1)c1ccc(F)cc1F | inconclusive: 79.4 µM [inhibitor, partial curve, poor fit] | –
CN(CC(=O)Nc1ccccc1Cl)C(=O)CCSc1ccc(F)cc1 | inconclusive: 89.1 µM [inhibitor, single point] | –
CCOc1ccc(CCNC(=O)c2ccc(CS(=O)(=O)Cc3ccccc3Cl)o2)cc1OCC | – | inactive: 0.356%
C=CCn1c(O)c(N=NC(=O)CNC(=O)/C=C/c2ccc(OC)cc2)c2ccccc21 | – | inactive: 35.5%
CCOC(=O)C1CCN(S(=O)(=O)c2ccc(Br)c(OCC)c2)CC1 | inconclusive: 89.1 µM [inhibitor, single point] | –
COc1ccc(-c2nc3nc(C)cc(Nc4ccc(C(C)=O)cc4)n3n2)cc1 | inconclusive: 28.2 µM [inhibitor, full curve, poor fit] | –
COc1cc(CNC(C)(C)C)ccc1OCC(=O)NC(C)(C)C | inconclusive: 89.1 µM [inhibitor, single point] | –
CC1CCN(c2ccc(NC(=S)NC(=O)c3ccco3)cc2)CC1 | – | inactive: -16.9%

Structure (SMILES) | Potency | activity change, negative = inhibition
CCc1c(C(C)S(=O)(=O)c2ccc(C)cc2)[nH]c(=O)n1-c1ccc(C)cc1 (stereo unspecified) | inconclusive: 79.4 µM [inhibitor, partial curve, poor fit] | –
O=c1[nH]c(Cc2ccc(F)cc2)nc2scc(-c3ccc(F)cc3)c12 | inconclusive: 44.7 µM [inhibitor, partial curve, poor fit] | –
Cn1c(=O)c2c(SCC(=O)N3CCN(c4ccccc4)CC3)nc(C3CC3)nc2n(C)c1=O | – | inactive: -24.1%
C=C(C)CSc1nnc2[nH]c(=O)cc(N)n12 | – | inactive: 4.68%
OCCCn1c(C2CCCN2c2nc(-c3ccc(Cl)cc3)cs2)nc2cc(Cl)c(Cl)cc21 (stereo unspecified) | inconclusive: 44.7 µM [inhibitor, partial curve, poor fit] | –
CCOC(=O)c1c[nH]c2c(C)ccc(Cl)c2c1=O | inconclusive: 20 µM [inhibitor, full curve, poor fit] | –
COc1cccc2c(=S)c(CCC(C)=O)c(C)[nH]c12 | inconclusive: 79.4 µM [inhibitor, partial curve, poor fit] | –
N#CCOC(=O)[C@H](Cc1c[nH]c2ccccc12)NS(=O)(=O)c1ccc(Cl)cc1 | inconclusive: 56.2 µM [inhibitor, partial curve, poor fit] | –
COc1ccc(OC)c(/C=N/Nc2nncn2/N=C/c2cc(OC)ccc2OC)c1 | inconclusive: 89.1 µM [inhibitor, single point] | –
Cc1ccc(-c2cc(-c3ccc(F)cc3)c(C#N)c(N)n2)o1 | inconclusive: 50.1 µM [inhibitor, partial curve, poor fit] | –
CCN1CCN(c2cc(C)c3cc(NC(=S)N4CCN(c5ccccc5)CC4)ccc3n2)CC1 | – | inactive: -4.81%
NS(=O)(=O)c1ccc(NC(=S)NC(=O)c2ccc(-c3ccccc3)cc2)cc1 | – | inactive: -24.7%
CCOC(=O)C1CCN(C(=O)c2ccc(S(=O)(=O)Nc3ccccc3Cl)cc2)CC1 | inconclusive: 89.1 µM [inhibitor, single point] | –
COc1ccc(C2C3=C(CC(C)(C)CC3=O)Nc3c2c(=O)n(C)c(=O)n3C)cc1OC (stereo unspecified) | inconclusive: 17.8 µM [inhibitor, full curve, poor fit] | –
CCC(C)[C@H](NC(=O)NC1CCN(Cc2ccccc2)CC1)C(=O)OC (stereo partly specified) | – | inactive: -3.18%
Cc1cccc(C(=O)OCC(=O)NCCCc2ccccc2)c1 | inconclusive: 89.1 µM [inhibitor, single point] | –
COc1cc(C=c2c3ccccc3n3c2cc(-c2ccccc2)[n+]3C)cc(OC)c1OC | inconclusive: 50.1 µM [inhibitor, partial curve, poor fit] | –
CCCCCCn1c(O)c(/C=C2\C=NN=C2c2ccccc2)sc1=S | inconclusive: 89.1 µM [inhibitor, single point] | –
COc1cc(/C=C2\SC(N)=NC2=O)cc(OC)c1 | inconclusive: 50.1 µM [inhibitor, partial curve, poor fit] | –
CCCNC(=O)Cn1nc(-c2ccc(F)cc2)c2cnc3ccc(F)cc3c21 | – | inactive: -14.4%
O=C(N/N=C/c1cccc([N+](=O)[O-])c1)c1ccc(Br)cc1 | inconclusive: 79.4 µM [inhibitor, partial curve, poor fit] | –
O=c1c2oc3ccccc3c2n(Cc2ccccc2F)c(=O)n1Cc1ccccc1 | – | inactive: 43.4%
